# Experimental data taken from PMC7819943, “Rice protein-binding microarrays: a tool to detect cis-acting elements near promoter regions in rice”.
# The list shows a part of the results.
# Target: T1, OsWOX13 (Oryza sativa, UniProt Q5QMM3 1-267)
# T1 sequence: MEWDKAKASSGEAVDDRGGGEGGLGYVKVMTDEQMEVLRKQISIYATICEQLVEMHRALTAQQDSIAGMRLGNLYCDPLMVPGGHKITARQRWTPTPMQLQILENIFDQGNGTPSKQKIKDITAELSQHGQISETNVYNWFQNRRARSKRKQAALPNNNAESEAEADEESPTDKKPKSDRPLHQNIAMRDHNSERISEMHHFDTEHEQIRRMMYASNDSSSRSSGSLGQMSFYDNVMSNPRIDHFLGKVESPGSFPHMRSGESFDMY
# Assay: protein-binding microarray (RPBM); PBS, 2% BSA, 51.3 ng/ul salmon testes DNA, 50 uM zinc acetate, 200 nM TF, 25 C, 1 h; high values mean tight binding
# Conditions: protein: recombinant; tags: N-terminal polyhistidine and DsRed monomer fusion (pET32a); label: CyDye5-dUTP incorporated in the synthesized complementary strand; 3' TTTTT single-stranded linker to array surface; dsDNA, one strand shown
# Summary of the method: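 Transcription factors were each fused at the N-terminus to a polyhistidine tag plus DsRed and expressed in E. coli BL21-CodonPlus before Ni–NTA purification. Binding to a double-stranded custom Agilent array was carried out with 200 nM protein at 25 °C for 1 h in PBS, 2% BSA, salmon testes DNA and 50 µM zinc acetate. The binding signal is per-feature fluorescence intensity, in arbitrary units, on an Axon 4000B scanner.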
row,Sequence,binding signal
1,CCAAGCATTAATGACGCTTTAAATTACTACCCCTTCCGTGCGGAGTCACCTAGTGCAG,3600 fluorescence intensity (a.u.)
2,AAGTTTACATGCCTAATTTAAATTTGAATTTGAATTCAAACGGAGTCACCTAGTGCAG,8850 fluorescence intensity (a.u.)
3,GTGGAGAGTTGTGATTGGTTGAGAAGAAAATATTGGTAGACGGAGTCACCTAGTGCAG,14400 fluorescence intensity (a.u.)
4,ATTATAATTAGCTTTCTTTTGTCATTTTGCAAGCAAACATCGGAGTCACCTAGTGCAG,14400 fluorescence intensity (a.u.)
5,ACAATAGATATGATGATGATCCAATCTTATCTTCTTGTGGCGGAGTCACCTAGTGCAG,6390 fluorescence intensity (a.u.)
6,ATACTAACCAAATTTCAGGTTGATTGTTTACTGCTTTCAACGGAGTCACCTAGTGCAG,18800 fluorescence intensity (a.u.)
7,CGTCTATAGCCAATCTAATAGCCAATTCATACAATAGATGCGGAGTCACCTAGTGCAG,4280 fluorescence intensity (a.u.)
8,GCAGATGTAATTACAGTACAATCATAGTGTAATTACACTGCGGAGTCACCTAGTGCAG,36000 fluorescence intensity (a.u.)
9,CTAGATGATATGCTAGATGAATTGAGTGGGTCTATGATATCGGAGTCACCTAGTGCAG,5540 fluorescence intensity (a.u.)
10,ACCTATTTTACTCTTAGCAATCAATTTAGCATATTTATCTCGGAGTCACCTAGTGCAG,3500 fluorescence intensity (a.u.)
11,GTCAACTGGAAATTGAAATTCAGCCAAAATTAGTGATCAGCGGAGTCACCTAGTGCAG,4850 fluorescence intensity (a.u.)
12,TTACGAGATGGTGATTGCTAATTGGTGGTACTAGCTAGTACGGAGTCACCTAGTGCAG,21800 fluorescence intensity (a.u.)
13,ACCAATTTTCGTTGTTAACTTTCTCAATGTTCATGCCGTGCGGAGTCACCTAGTGCAG,3300 fluorescence intensity (a.u.)
14,TAATCTAATTGAGACGCTTATGGGCTCGCTAACCGACCACCGGAGTCACCTAGTGCAG,27200 fluorescence intensity (a.u.)
15,ACTCACTGTAATTTTGGTATAATTTAATAACTAAATTTGGCGGAGTCACCTAGTGCAG,16700 fluorescence intensity (a.u.)
16,TCCATGATTAGCCTGTGTGATGTTACAGTAAACATTCTCTCGGAGTCACCTAGTGCAG,33300 fluorescence intensity (a.u.)
17,ATTGTTATTGATGACATATGGGATAAGAAATCATGGGAGTCGGAGTCACCTAGTGCAG,7300 fluorescence intensity (a.u.)
18,AATCTCTGAATAAATTGATTTGCACTAGTTCTAGAAGCTGCGGAGTCACCTAGTGCAG,36000 fluorescence intensity (a.u.)
19,GTAGGTGATTAGACCATTCTAACCCTCATCGACAACTCGGCGGAGTCACCTAGTGCAG,22200 fluorescence intensity (a.u.)
20,ACCTAATATTAGATTGGACACATCTTATTACTATGAATCTCGGAGTCACCTAGTGCAG,18200 fluorescence intensity (a.u.)
21,AAATGATTGAATCCTAGAAACTCTGACCTATACAAGTGGTCGGAGTCACCTAGTGCAG,60500 fluorescence intensity (a.u.)

row,Sequence,binding signal
1,GGCATGTTTGATTTGGCACAAATTTTGAGAACTTTTACGGCGGAGTCACCTAGTGCAG,6770 fluorescence intensity (a.u.)
2,GTTTAGATTGGTAGGTTTGACACTGTTTGATGCTAAAACACGGAGTCACCTAGTGCAG,15500 fluorescence intensity (a.u.)
3,TCATTAACGCATAATTAATTGAGTTTTGATTATTAAACTTCGGAGTCACCTAGTGCAG,20800 fluorescence intensity (a.u.)
4,CAATGGAATTAATCATGATAGCAGCCAGGTACGTAGCAGCCGGAGTCACCTAGTGCAG,7550 fluorescence intensity (a.u.)
5,CCGCCAATATTGATTGAGATATATTCAGAAATTCTATAAACGGAGTCACCTAGTGCAG,13900 fluorescence intensity (a.u.)
6,TCAAACCAACAAAATTATCAATTATCTGTGATTTGGGATTCGGAGTCACCTAGTGCAG,24900 fluorescence intensity (a.u.)
7,TTATCAGGAGACAATTGATTAAATTAATGGTAGGGGTACCCGGAGTCACCTAGTGCAG,17800 fluorescence intensity (a.u.)
8,ATTATAATCAATCTCCCGCGGTGTATGGGCTCGGCGCACGCGGAGTCACCTAGTGCAG,10000 fluorescence intensity (a.u.)
9,TAGCAAATATTAATTATAAGATTGGAAATTCCATCTAAATCGGAGTCACCTAGTGCAG,5150 fluorescence intensity (a.u.)
10,TTTAATGTCTAAATTTAATAGTAGAGTCATACCTTCACCTCGGAGTCACCTAGTGCAG,8730 fluorescence intensity (a.u.)
11,ATTGATTGATGCAGAATCCGGAAGTTGCTCACTTTGATTACGGAGTCACCTAGTGCAG,48700 fluorescence intensity (a.u.)
12,CAAAATTAACACCAATCTCAGGAAGGTAATCCCAAATCCCCGGAGTCACCTAGTGCAG,25100 fluorescence intensity (a.u.)
13,TTATTGTAACTAAATTTTGAACATATGATTTCTGCACGGACGGAGTCACCTAGTGCAG,8270 fluorescence intensity (a.u.)
14,TGGCTAGGAACGTAATTGTGATTATTGGACAGGACTTAATCGGAGTCACCTAGTGCAG,6060 fluorescence intensity (a.u.)
15,ATAACTAATCTAATAGCTCATTTATACAATAATTACATACCGGAGTCACCTAGTGCAG,6310 fluorescence intensity (a.u.)
16,ACTCAATCAGAGTTCAGACATACTCCGTAACTGAGAAGAGCGGAGTCACCTAGTGCAG,22000 fluorescence intensity (a.u.)
17,TCTCGATTGCCATCTGTTAACGAAGCTATCGTTGTACCCACGGAGTCACCTAGTGCAG,7460 fluorescence intensity (a.u.)
18,TGGACTCACAATCAATTACGGCCCGGCCCAGTAGATACCACGGAGTCACCTAGTGCAG,16000 fluorescence intensity (a.u.)
19,TAACTTGCAATTACAATCAGTTACACAACACTTGTACAGACGGAGTCACCTAGTGCAG,14000 fluorescence intensity (a.u.)
20,GTGTTGACAGGATCTCCCCAGCCACAACAACACGAACCCCCGGAGTCACCTAGTGCAG,11100 fluorescence intensity (a.u.)
21,TATATAAATTTACGTATGAAATGCACTGTATGAAATGCACCGGAGTCACCTAGTGCAG,9180 fluorescence intensity (a.u.)
